Values joined by “and” are separate entries in the source; they are usually repeats but may differ in a detail not shown here. Identical values can stand only once.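 Five concentrations, 48 hours, 96-well plates. The concentration for 50% growth inhibition is given as GI50. Definition used: TGI = concentration required for complete inhibition of growth.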 A value given as a limit tells only on which side of the number the result lay.

The assay concerns NCI-H322M lung. The assay is described as follows: NCI-60 cell line screen, 48 h.
As for `CCOC(=O)C(SCCO)C(C(=O)OCC)n1cnc2c(N)ncnc21` (centres undefined), the TGI is more than 100 µM. The same measure, in the same setting: then `O=C1c2ccccc2C(=O)N1CCCSc1ccccc1`, with more than 100 µM.

Take `O=c1c2c(nc3n1CCS3)[nH]c1ccccc12`: the GI50 is more than 100 µM and the TGI is more than 100 µM. The molecule `CC(C)CS(=O)(=O)/C(=C(\c1ccc(Br)cc1)S(=O)(=O)CC(C)C)c1ccc(Br)cc1` displayed a TGI of more than 100 µM. Molecule `CCC1(CC)C(=O)OC(=O)C1(CC)CC` came in with a TGI of more than 100 µM.

Take `O=c1[nH]c(C23CC4CC(CC(C4)C2)C3)cc2c1c(=O)oc1ccccc12`: the TGI was determined as 16.6 µM. As to `ClCc1cccc(Cn2cnc3c(NC45CC6CC(CC(C6)C4)C5)ncnc32)c1`, the GI50 was 15.4 µM and the TGI turned out to be 31.9 µM.

The molecule `CCOC(=O)NNC(=O)C1CSC(c2ccccc2)N1C(C)=O` (centres undefined) gave a TGI of more than 100 µM. In the case of `COc1ccc(Nc2nnc(CCCCCCCCc3nnc(Nc4ccc(OC)cc4)o3)o2)cc1`, the TGI is more than 100 µM. Same read-out and setting: with `Cc1csc2nc3c(cnn3C)c(=S)n12` the figure was more than 100 µM; with `C[C@]12C[C@H](c3ccccc3)Nc3ccccc3N1C(c1ccccc1)=NO2`, more than 100 µM; with `CC(C)=CCC[C@@H](C)C1=C(O)C(O)C(C)=C2N=C(c3ccccc3)C(=O)OC21` (some centres undefined), more than 25 µM. With `CCCCOC(=O)NC(=O)c1cn(CCCOC(=O)CCCCCCCCC(=O)OCCCn2cc(C(=O)NC(=O)OCCCC)c(=O)[nH]c2=O)c(=O)[nH]c1=O`, the TGI is more than 100 µM. Molecule `O=C(N/N=C/c1ccc2c(c1)OCO2)Nc1ccccc1Cl` showed a TGI of more than 70.8 µM. The same measure, in the same setting: with `O=C1NC(=O)C(Cc2ccccc2)(c2cccnc2)N1` (centres undefined) the figure was more than 100 µM; with `COc1ccccc1N1C(=O)/C(=C/c2ccc(N(CCC#N)CCC#N)cc2C)N=C1c1cc([N+](=O)[O-])ccc1Cl`, more than 100 µM; with `O=[N+]([O-])c1cccc(C2N3CCCCC3[C@@H]3c4[nH]c5ccccc5c4CCN23)c1` (some centres undefined), 39.3 µM. The molecule `COC(=O)c1c(O)ccc2c1c1c(n2Cc2ccccc2)C(=O)c2ccccc2C1=O` registered a TGI of 29.1 µM. On the same count and under the same terms, then `CC(=O)O[C@@H]1CC[C@@]2(C)C(CC[C@H]3[C@@H]4CC[C@H]([C@H](C)CCc5nc6ccc(C)cc6[nH]5)[C@@]4(C)CC[C@@H]32)C1` (some centres undefined), with more than 100 µM. With `CC(=O)N[C@H]1C=C[C@@H]2/C=C(C)/C=C/[C@@H](C)[C@H]([C@H](C)[C@H](O)[C@@H](C)NC(C)=O)OC(=O)/C=C/C=C(C)\C=C\[C@]2(C)C1`, the GI50 was 0.0957 µM and 0.348 µM; the TGI was 4.65 µM and > 45 µM. Molecule `CC(=O)CC(=O)Nc1ccc2ccccc2c1` registered a TGI of more than 100 µM. On the same count and under the same terms, then `O=[N+]([O-])c1cccc(/C=N\NS(=O)(=O)c2ccc(Cl)cc2)c1O`, with more than 100 µM. As to `CSc1ccc(C2=NN(C(=O)c3ccc(F)cc3)C(c3ccc(F)cc3)C2)cc1` (centres undefined), the GI50 is 16 µM and the TGI came to 29.7 µM. Turning to `O=C(Nc1ccc(Cl)cc1)C(=O)C(C(=O)c1ccccc1-c1ccccc1)C1OC(=O)c2ccccc21` (centres undefined), the TGI came out at 53.6 µM. The same measure, in the same setting: with `CCC(C)C(C(=O)N/N=C1/SCC(=O)N1c1ccccc1)C(=O)N/N=C1/SCC(=O)N1c1ccccc1` (centres undefined) the figure was more than 100 µM; with `CC(=O)c1cccc(N2COC(C)(C)c3nc4ccccc4n3C2)c1`, more than 100 µM. Same read-out and setting: with `COCC(N=CN1CCCc2ccccc2[C@@H]1CCCCl)C(C)(C)C` (some centres undefined) the figure was 40.8 µM; with `COc1ccc2cc(CNCCCCCCCCCCCCNCc3ccc4cc(OC)ccc4c3)ccc2c1`, 43.7 µM. For `O=C1CC(=O)NC(=NN2C(=O)/C(=C/C(=O)c3ccco3)N=C2c2ccccc2)N1`, the TGI is more than 100 µM. `O=C(c1cc(Cl)cc(Cl)c1)N(C(=O)N1CCN(c2ccccc2)CC1)c1ccccc1` gave a TGI of more than 100 µM. Take `Nc1ccc(N(S(=O)(=O)c2ccccc2)S(=O)(=O)c2ccccc2)c(Cl)c1`: the TGI is more than 100 µM. In turn, `O=C(c1ccccc1)c1ccc2nc3n(c2c1)C(c1c(F)cccc1F)SC3` (centres undefined) yielded a TGI of more than 93.1 µM. Take `COC(=O)CCc1cc(OC)c2c(c1)C(C(=O)OC)C(c1ccc(OC)c(OC)c1)O2` (centres undefined): the TGI is more than 100 µM. Turning to `C=CCC(N[C@H](CO)c1ccccc1)c1ccc2ccccc2n1` (some centres undefined), the GI50 is more than 100 µM and the TGI was more than 100 µM. With `CCN1CCN(C(=O)[C@]23CC[C@@H](C)[C@H](C)[C@@H]2C2=CC[C@@H]4[C@@]5(C)C/C(=C/c6ccncc6)C(=O)C(C)(C)[C@@H]5CC[C@@]4(C)[C@]2(C)CC3)CC1`, the GI50 is 1.59 µM and the TGI was found to be 3.05 µM. `CC(C)=CCCC(C)c1ccc(C)c2c1OCN(CC1CCNCC1)C2` (centres undefined): the GI50 was 19.4 µM and the TGI came to 38.8 µM.

On to `COc1ccc(CN(C)c2ccc(CO)c(Cl)c2)cc1`, for which the GI50 was 16.7 µM and the TGI was determined as 99.6 µM. In turn, `CNc1c2cccc(C)c2nc2c(C(=O)NCCN(C)C)cccc12` came in with a TGI of 0.617 µM. The same measure, in the same setting: then `Nc1nc(Cl)c(N)c(NCC2(CO)CCC2)n1`, with more than 100 µM; and `COc1ccc(N2C(=O)CC(Cl)C2=O)cc1` (centres undefined), with more than 100 µM; and `CC1=C(C(=O)Nc2ccccc2C)C(c2ccc(Cl)c(Cl)c2)C(C(=O)Nc2ccccc2C)=C(C)N1`, with more than 100 µM. In the case of `CCOC(=O)c1cc(C#N)c(=O)n(/N=C(\C)c2ccncc2)c1O`, the GI50 is more than 100 µM and the TGI is more than 100 µM. `CCCCCCCCCCCCCCCCCCNc1ccn(C2OC(COP(=O)(O)OC3CC(n4cc(F)c(=O)[nH]c4=O)OC3COP(=O)(O)OCC3OC(n4ccc(N)nc4=O)C(O)C3O)C(O)C2O)c(=O)n1` (centres undefined): the TGI is more than 100 µM. The same measure, in the same setting: then `CC12CCC3[C@@H](CC3(C)C)C(O)(CCC1=O)C2` (some centres undefined), with more than 100 µM; and `N#CC(C#N)N=Cc1ccncc1`, with more than 100 µM; and `CCOC(=O)C(Cl)(NC(=O)NC(Cl)(C(=O)OCC)C(F)(F)F)C(F)(F)F` (centres undefined), with more than 100 µM. With `O=C(/C=C/c1ccc(F)cc1)c1ccc(Cl)cc1Cl`, the GI50 is more than 100 µM and the TGI is more than 100 µM. In turn, `O=C1OC(CC(=O)c2ccc(Cl)c(Cl)c2)C(Cl)=C1Cl` (centres undefined) displayed a TGI of more than 100 µM. As to `CCN(CC)CC(O)CNc1ccc(NCC2CO2)c2c1C(=O)c1ccccc1C2=O` (centres undefined), the TGI amounted to 5.53 µM. The same measure, in the same setting: then `CC[C@@H]1OC2(C)CC(S(=O)(=O)c3ccccc3O)CC1O2` (some centres undefined), with more than 100 µM; and `O=C1CC(NC(=O)C(F)(F)F)c2c1csc2Br` (centres undefined), with more than 100 µM; and `CCOC(=O)NC(=O)c1cn(CC(=O)NCC(=O)NCC(=O)NCCCN2CCN(CCCNC(=O)CNC(=O)CNC(=O)Cn3cc(C(=O)NC(=O)OCC)c(=O)[nH]c3=O)CC2)c(=O)[nH]c1=O`, with more than 100 µM. On the same count and under the same terms, with `Cc1cc([C@H](C#N)c2nc3ccccc3[nH]2)nc(Cl)n1` the figure was 55.2 µM; with `COc1ccc(/C=C2\CCC(CNc3cc(C)on3)C2=O)cc1` (centres undefined), more than 100 µM.

For `Cn1c([N+](=O)[O-])cnc1/C=C1\Oc2ccccc2C1=O`, the GI50 is 2.88 µM and the TGI is 11.6 µM.

On to `CC(O)c1cccc(NCc2c3ccccc3c(=O)n3c2oc2ccccc23)c1` (centres undefined), for which the GI50 is 6.04 µM and the TGI came out at 54.8 µM. `COc1cc(C(=O)/C(C)=C/c2c[nH]c3ccccc23)cc(OC)c1OC` returned a TGI of more than 100 µM.

As to `COc1cc2c[n+](C)c3c4cc5c(cc4ccc3c2cc1OC)OCO5`, the TGI worked out at 42.8 µM. For the molecule `COc1cc2c(cc1OCCCOc1cc3c(cc1OC)C(=O)N1C[C@H](F)C[C@H]1C=N3)N=C[C@@H]1C[C@@H](F)CN1C2=O`, the GI50 is 13.5 µM and the TGI amounted to 31.9 µM.

In the case of `CO[C@H]1c2cccc3cccc(c23)[C@@H]1n1[nH]c(=O)n(C(C)(C)C)c1=O`, the TGI is more than 100 µM. For the molecule `COc1ccc(/C=N\NC(=O)CN2CCN(c3cc4c(cc3F)c(=O)c(C(=O)N/N=C/c3ccc(OC)c(OC)c3)cn4C3CC3)CC2)cc1OC`, the GI50 was 2.83 µM and the TGI amounted to 12.9 µM. Molecule `COC(=O)Nc1nc2ccc(S(=O)(=O)NC(CC(C)C)C(=O)OC)cc2[nH]1` (centres undefined) displayed a TGI of more than 100 µM. Same read-out and setting: then `CO[C@@H]1/C=C\C=C(/C)C(=O)NC2=CC(=O)C(NCCN(C)C)=C(C[C@@H](C)C[C@@H](OC)[C@@H](O)[C@H](C)/C=C(\C)[C@H]1OC(N)=O)C2=O`, with 2.15 µM and 16.3 µM; and `O=C(O)c1ccc(P(=O)(O)c2ccc(C(=O)O)cc2Br)c(Br)c1`, with more than 100 µM.

With `c1ccc2c(C3CCN(CCN4CCOCC4)C3)c[nH]c2c1` (centres undefined), the TGI was more than 100 µM. `O=[n+]1c2ccccc2n([O-])c2ccccc21` yielded a TGI of 88.2 µM. Still for that read-out and setting: with `Cc1oc2c(c1C)S(=O)(=O)C(C#N)C(c1ccccc1)N2` (centres undefined) the figure was more than 100 µM. The same measure, in the same setting: with `O=c1[nH]n(Cc2ccccc2Cl)c2ccc([N+](=O)[O-])cc12` the figure was more than 100 µM; with `CC[C@](O)(CC(=O)O[C@H]1C(=O)O[C@@H]2C[C@H]3C(C)=CC(=O)[C@@H](O)[C@]3(C)[C@H]3[C@@]4(O)OC[C@]32[C@@H]1[C@@H](C)[C@H]4O)C(C)C`, 0.0352 µM; with `CCC(Sc1cc(Cl)c(C)cc1S(=O)(=O)Nc1nc(N)nc(N(C)C)n1)C(=O)O` (centres undefined), more than 10 µM.

As for `COc1cc(OC)cc(C2CC(=O)Nc3c2c(C)nn3-c2nc3ccccc3[nH]2)c1` (centres undefined), the GI50 was 4.63 µM and the TGI is more than 100 µM. On to `CCN(CC)CCC(=O)NC1c2ccc(Cl)cc2Oc2c(C)cccc21` (centres undefined), for which the TGI came out at 29.5 µM.

As for `COc1c2nc(CCl)[nH]c(=O)c2c(OC)c2nc(CCl)[nH]c(=O)c12`, the TGI was more than 100 µM. `COc1cc(OCc2nc3ccccc3n3cccc23)cc(OC)c1OC` showed a TGI of more than 100 µM. On to `O=c1ccn(C2OC(CO)C(O)C2F)c(=O)[nH]1` (centres undefined), for which the GI50 is more than 1000 µM and the TGI was more than 1000 µM. `CN(C)c1ccc(/C=N\NC(=O)c2ccccc2Nc2ccccc2C(=O)N/N=C/c2ccc(N(C)C)cc2)cc1`: the TGI was more than 100 µM.

Consider `CCCCc1c2c(nc3c1CCC/C3=C\c1ccccc1)C(=O)CCC2`, for which the TGI was found to be 78.1 µM. For `CCN(CC)C1Oc2cc3c(cc2C(c2ccc(OC)cc2)C1C)OCO3` (centres undefined), the TGI amounted to 57.4 µM. Same read-out and setting: with `O=C(Nc1cccc2ccccc12)Nn1cnnc1` the figure was more than 100 µM; with `COc1ccc(NC(=O)C(=O)C(C(=O)c2ccccc2)C2OC(=O)c3ccccc32)c([N+](=O)[O-])c1` (centres undefined), more than 100 µM; with `NNC(=O)/C(=C/c1ccc(Cl)c(Cl)c1)NC(=O)c1ccccc1`, more than 100 µM.

For `Cc1nc2sc(C(=O)Nc3cccc(Cl)c3C)c(N)c2cc1C(=O)/C=C/c1ccccc1`, the GI50 was 1.52 µM and the TGI worked out at 13 µM.
